Among all 310,000 compounds or so, about 14,000 (4.5%) showed an effect of 50% or more. Effects have a minus sign here. This is one part of the list.
biological target: human ether-à-go-go-related gene (hERG) potassium channel (human, UniProt Q12809); experiment: primary screen, population patch clamp on CHO cells stably expressing hERG
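Also: peak tail current of the secondary pulse compared with the same well before compound.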

human ether-à-go-go-related gene (hERG) potassium channel, sequence (Q12809 whole entry, looked up): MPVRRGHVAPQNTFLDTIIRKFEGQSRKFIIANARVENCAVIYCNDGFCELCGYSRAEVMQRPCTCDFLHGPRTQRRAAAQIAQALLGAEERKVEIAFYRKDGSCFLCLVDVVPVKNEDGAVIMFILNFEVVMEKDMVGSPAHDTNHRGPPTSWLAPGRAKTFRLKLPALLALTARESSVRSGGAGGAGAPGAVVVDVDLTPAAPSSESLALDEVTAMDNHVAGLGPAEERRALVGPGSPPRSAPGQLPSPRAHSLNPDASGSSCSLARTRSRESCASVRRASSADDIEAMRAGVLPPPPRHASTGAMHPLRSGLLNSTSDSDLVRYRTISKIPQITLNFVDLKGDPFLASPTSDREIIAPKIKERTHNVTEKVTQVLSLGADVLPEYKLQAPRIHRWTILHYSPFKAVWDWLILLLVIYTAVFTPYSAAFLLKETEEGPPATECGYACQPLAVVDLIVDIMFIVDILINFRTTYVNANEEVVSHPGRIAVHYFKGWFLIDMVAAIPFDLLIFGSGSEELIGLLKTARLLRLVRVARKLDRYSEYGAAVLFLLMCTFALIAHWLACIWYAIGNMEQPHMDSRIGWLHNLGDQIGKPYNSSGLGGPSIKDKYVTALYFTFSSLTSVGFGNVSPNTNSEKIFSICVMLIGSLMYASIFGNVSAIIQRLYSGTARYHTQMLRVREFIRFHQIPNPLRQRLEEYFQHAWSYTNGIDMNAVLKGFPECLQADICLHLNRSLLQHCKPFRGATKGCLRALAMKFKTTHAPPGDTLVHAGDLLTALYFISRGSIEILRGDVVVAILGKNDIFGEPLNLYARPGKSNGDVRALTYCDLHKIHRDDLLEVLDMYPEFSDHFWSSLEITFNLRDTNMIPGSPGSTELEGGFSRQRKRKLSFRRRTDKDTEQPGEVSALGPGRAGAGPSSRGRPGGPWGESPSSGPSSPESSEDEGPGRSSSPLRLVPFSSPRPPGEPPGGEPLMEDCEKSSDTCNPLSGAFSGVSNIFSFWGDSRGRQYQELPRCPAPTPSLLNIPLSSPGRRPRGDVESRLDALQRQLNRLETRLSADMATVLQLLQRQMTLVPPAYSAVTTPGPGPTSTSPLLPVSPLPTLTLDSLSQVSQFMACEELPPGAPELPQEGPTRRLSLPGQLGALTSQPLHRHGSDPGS

Compound | hERG current change (%, negative = inhibition) at 10uM
C[N+]1(C)C2CCC1CC(OC(=O)c1ccccc1)C2.[Br-] (stereo not drawn) | 5.57%
COc1ccc(/C=C/C(=O)Nc2cc(C)on2)cc1 | 4.72%
O=C(CSc1ccc(Br)cc1)Nc1ccccc1N1CCOCC1 | -2.27%
Cc1occc1C(=O)Nc1cccc([N+](=O)[O-])c1C | -3.3%
CCNC(=O)CC1S/C(=N/N=C(\C)c2ccccc2)NC1=O (stereo not drawn) | -1.63%
CCOc1cc(S(=O)(=O)NCc2cccnc2)c(C)cc1C | 9.71%
O=C(c1ccccc1)C(O)(Cc1ccccc1)c1ccccc1 (stereo not drawn) | 0.054%
O=C(c1ccncc1)N1CCCC(N2CCN(c3ccc(F)cc3)CC2)C1 (stereo not drawn) | -44.6%
O=C(COc1ccc(Cl)cc1)N(Cc1ccc(F)cc1)C1CCS(=O)(=O)C1 (stereo not drawn) | -63.3%
Cc1ccc(-c2csc(NC(=O)CCNC(=O)c3ccc(Cl)cc3)n2)cc1 | 14.5%
S=c1nc(NCCc2ccccc2Cl)c2ccccc2[nH]1 | 20%
CC(C(=O)NCc1ccccc1)N1C(=O)C2CC=C(Cl)CC2C1=O (stereo not drawn) | 2.89%
O=C1c2ccccc2C(=O)N1CCSc1ncn[nH]1 | 19.7%
CC1(C)Cc2cccc(OCC(=O)Nc3ccccc3N3CCOCC3)c2O1 | -10.8%
CCc1cccc(NC(=O)Cn2c(=O)oc3cc(S(=O)(=O)N4CCOCC4)ccc32)c1 | 17.4%
CCn1c(SCC(=O)NC2CCS(=O)(=O)C2)nnc1-c1ccccc1 (stereo not drawn) | 5.49%
COC1=NS(=O)(=O)c2ccccc21 | 7.18%
CCc1[nH]nc(C(=O)N2CCCC(Nc3ccc(C(C)C)cc3)C2)c1C (stereo not drawn) | 3.25%
CC(C)NC(=O)COc1ccc(S(=O)(=O)N2CCCC2)cc1 | 15.8%
COCCOC(=O)C1=C(C)NC(=O)NC1/C=C/c1ccccc1 (stereo not drawn) | -5.86%
CCOC(=O)[C@@H]1[C@H]2COc3cc(OC)ccc3[C@@H]2N2C(=O)N(c3ccc(C(F)(F)F)cc3)C(=O)[C@]12C | 15.1%
O=C(NNS(=O)(=O)c1ccc(F)cc1)c1ccc(O)cc1 | 9.17%

Compound | hERG current change (%, negative = inhibition) at 10uM
COc1ccc(NC(=O)CN(C)CC(=O)Nc2cccc(F)c2)cc1Cl | -28.9%
Cc1nn(-c2ccc(F)cc2)c(Cl)c1/C=C1\C(=O)Nc2ccccc21 | 5.24%
O=C(OC(C(=O)NCc1cccs1)c1ccccc1Cl)c1ccco1 (stereo not drawn) | -23.6%
COc1ccc(N2C(=O)CCC(C(=O)N3CCN(c4ccccn4)CC3)C2c2ccc(F)cc2)cc1 (stereo not drawn) | -48.2%
COc1ccc(CNC(=O)C2CCCN2S(=O)(=O)c2ccc(S(=O)(=O)N(C)C)cc2)cc1 (stereo not drawn) | -10.7%
Cc1nnc(NC(=O)c2ccc3c(c2)OCO3)s1 | 20.3%
CCn1c(N)c(C(=O)N2CCOCC2)sc1=S | 11.4%
Cc1cccc(C)c1OCC(=O)NCc1ccccc1 | -1.24%
COc1cc(C(=O)NCC(=O)N/N=C/c2ccc(-c3cccc([N+](=O)[O-])c3)o2)cc(OC)c1OC | -2.18%
CC1CCCCC1NC(=O)C1Cc2ccccc2CN1S(C)(=O)=O (stereo not drawn) | 2.98%
COc1ccccc1C(=O)NC(=O)COC(=O)CCOc1cc(C)ccc1C | 1.93%
S=c1nc(-c2ccccc2)c(-c2ccccc2)n[nH]1 | 19.6%
COc1ccc(-c2nc(C#N)c(N3CCCCCC3)o2)cc1 | -23.3%
COC(=O)c1ccc(COC(=O)[C@@H]2CC(O)CN2S(=O)(=O)c2ccccc2[N+](=O)[O-])cc1 (stereo partly drawn) | -10.2%
CCn1c(SCC(=O)N2c3ccccc3Sc3ccccc32)nc2c1c(=O)n(C)c(=O)n2C | -8.47%
O=C(Nc1ccc(OC(F)(F)F)cc1)c1cnccn1 | -14.5%
O=C(CNC(=O)c1ccccc1)Nc1cccc(C(F)(F)F)c1 | -3.37%
COc1cc(C(=O)N2CCN(C(=O)c3cc(-c4ccc(Br)cc4)n[nH]3)CC2)cc(OC)c1OC | -73.3%
CC1CCCN(CC(O)COCC2COc3ccccc3O2)C1.Cl (stereo not drawn) | -28.2%
CC(OC(=O)CNC(=O)c1ccccc1F)C(=O)Nc1nc(-c2ccccc2)cs1 (stereo not drawn) | -11.6%
CN(C)C(=O)CSc1nnc([C@H](Cc2c[nH]c3ccccc23)NC(=O)OC(C)(C)C)o1 | -4.24%
COc1ccc(C2CC3(CC(C)(C)NC(=S)N3)Oc3cc(O)cc(C)c32)cc1 (stereo not drawn) | 14.6%

Compound | hERG current change (%, negative = inhibition) at 10uM
O=C(NCc1ccc2c(c1)OCO2)Nc1cccc(Cl)c1 | 11.7%
CCS(=O)CC(=O)Nc1c(-c2ccccc2)oc2ccccc2c1=O (stereo not drawn) | 11.7%
CCCCc1c(C)nc2ccccc2c1SCCC#N | -50.6%
O=C(CSc1nnc(COc2ccccc2)n1-c1ccccc1)c1cccs1 | -6.35%
Cc1cc(C)cc(N2C(=O)NC(=O)/C(=C\c3cccn3-c3ccc(Cl)cc3)C2=O)c1 | 9.97%
O=C(Cn1ncc(N2CCCC2)c(Cl)c1=O)c1ccc(Cl)cc1 | -21.2%
COc1ccccc1S(=O)(=O)Nc1cccc(-c2nnc3n2CCCCC3)c1 | 5.99%
Cc1cccc(C)c1NC(=O)CCc1nnc2ccc(N3CCCC3)nn12 | 10.3%
O=C1CN(c2nc(-c3cccs3)nc3sc4c(c23)CCCC4)CCN1 | 0.456%
CCc1ccc(OCCNC(=O)c2ccc(S(=O)(=O)N(C)C)cc2)cc1 | -15.9%
CC(C)(C)n1ncc2c(=O)n(CC(=O)N3CCCC3)cnc21 | 9.77%
Cc1ccc(S(=O)(=O)N2CCOCC2)cc1C(=O)OCC(=O)Nc1ccc2[nH]c(=O)[nH]c2c1 | 3.54%
COC(=O)Cc1cc(=O)[nH]c(/N=C(\N)Nc2ccccc2)n1 | 17.6%
O=C(NCc1ccc2c(c1)OCO2)C1CC(=O)N(C2CCCCCCC2)C1 (stereo not drawn) | -0.78%
CCc1nnc(NC(=O)CCN(c2cc(C)cc(C)c2)S(=O)(=O)c2ccc(Cl)cc2)s1 | 17.7%
CC1=CC(=O)OC1Cc1ccncc1 (stereo not drawn) | 11.3%
CCC(C)c1ccc(C(CC)NC(=O)C2CCCO2)cc1 (stereo not drawn) | 16.4%
COc1ccc(NCC(O)Cn2cnc3c2c(=O)n(C)c(=O)n3C)cc1 (stereo not drawn) | 14.7%
CCCCCCCOC(=O)c1ccc(OC(=O)c2cccnc2)cc1 | 14.1%
COc1ccc(-c2nnc3n(CCc4ccccc4)c(=O)c4ccccc4n23)c(OC)c1 | 4.4%
COc1cccc(CNC(=O)CCNS(=O)(=O)c2cccc3nsnc23)c1 | -3.16%
Fc1ccccc1N1CCN(Cc2c(F)cccc2F)CC1 | 7.89%

Compound | hERG current change (%, negative = inhibition) at 10uM
Cc1ccc(CC(=O)N/N=C/c2ccc3c(c2)OCO3)cc1 | 5.13%
O=C(NC1CCCCC1)C(c1ccccc1)N(C(=O)c1csnn1)C1CCCC1 (stereo not drawn) | -0.211%
O=S(=O)(Nc1cccc(Cl)c1)c1ccc(-n2cccn2)cc1 | -0.875%
CC1(C)Cc2c(C#N)c(N3CCNCC3)nc(-c3ccco3)c2CS1 | -21.3%
CCNc1c(NS(=O)(=O)c2ccc(F)c(Cl)c2)c(=O)oc2ccccc12 | -48.1%
CN1CCN(C(=O)c2cc(Cl)ccc2Cl)CC1 | 2.43%
COc1cc(CSc2nnnn2-c2ccc(C)cc2)cc(OC)c1OC | 8.81%
CCCn1nc(C(=O)OCc2nc(N)nc(Nc3ccccc3C)n2)c2ccccc2c1=O | -25.1%
COc1cccc(NC(=S)N(CCCN2CCOCC2)C(C)c2cc3cccc(OC)c3o2)c1 (stereo not drawn) | 6.32%
O=C(c1cc(-n2cnnc2)ccc1Cl)N1CCN(c2nc(-c3ccccc3)cs2)CC1 | -21.3%
O=S(=O)(NCc1cccnc1)c1ccc(Cl)s1 | 6.91%
CC(=O)N1c2ccc(S(=O)(=O)NCC3CCC(C(=O)NCc4ccccc4)CC3)cc2CC1C (stereo not drawn) | 23.7%
O=c1c2ccccc2nc(SCCN2CCOCC2)n1CCc1ccccc1 | -15.4%
CC1(C)c2[nH]c3ccccc3c2C[C@H]2C(=O)N(Cc3cccc(F)c3)C(=O)N21 | 2.06%
O=C(c1cc(C(=O)N2CCOCC2)c2nc3ccccc3n2c1)c1ccccc1O | -6.65%
Cc1nn(C)cc1CNC(=O)C1CCC(=O)N(Cc2cccc(C(F)(F)F)c2)C1 (stereo not drawn) | 13%
C/C(=N\n1c(C)nc2ccccc2c1=O)c1ccc(C)o1 | 11.8%
CCc1nn(CCCC(=O)Nc2ccc(C)cc2C)c(=O)c2cc3occc3n12 | -13.3%
COC(=O)c1ccccc1S(=O)(=O)N1CCn2cccc2C1C (stereo not drawn) | 2.18%
COc1ccc(C)cc1S(=O)(=O)N1CCCC(C(=O)N2CCN(c3ccccc3)CC2)C1 (stereo not drawn) | -17.5%
Cc1ccc(NC(=S)NC(=O)CC2CC(C)(C)OC2=O)cc1 (stereo not drawn) | 0.394%

From PMC4336329 (PLoS ONE, 2015)
